The campaign covered roughly 360,000 compounds. About 17,000 (4.7%) were called active. The inconclusive results got no clear call from the source; some entries with a clear call stand among them for comparison. Cut-off read from the data, not from the text of the source: active = activity change below about -50%; inconclusive = mostly about -30% to -49%; inactive = weaker than that.
Test: qHTS for Inhibitors of Inflammasome Signaling: IL-1-beta AlphaLISA Primary Screen
Conditions: THP-1 LPS/ATP IL-1B secretion, 16 h; at 57.5 µM, stronger effect = lower value
In short: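 THP-1 cells pretreated 1 hr with compounds (up to 57.5 uM final), then stimulated with LPS (250 ng/mL final) plus ATP (1.25 mM final); secreted IL-1B measured by AlphaLISA after 16 hr, decreased signal indicating inhibition.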
With `Cc1ccc(-n2cc3ccc([N+](=O)[O-])cc3n2)cc1` the activity change was inconclusive: -34.8%. With `O=C(c1ccccc1Sc1ccc([N+](=O)[O-])cc1Cl)N1CCOCC1` the activity change was active: -72%. For `COc1ccc(-c2n[nH]c(C)c2-c2cc(OC)ccc2O)cc1`, the activity change was inactive: -9.97%. With `Cc1ccc2nc(-c3ccccc3)c(CC(=O)O)c(C(=O)O)c2c1` the activity change was inactive: 31.2%. In the case of `COc1ccc(-c2ccc([C@H]3[C@H]4C=CC[C@@H](C)[C@@H]4C(=O)N3Cc3ccccc3)c(F)c2)cc1OC`, the activity change is reported as inconclusive: -36.9%. With `Cc1c(C(=O)N2CCC2(C)C(=O)O)oc2ccccc12` (stereo unspecified) the activity change was inconclusive: -40%. For `COc1cc(C)ccc1OCCCOc1ccccc1Br`, the activity change was inconclusive: -31.3%. For `Nc1ccc2c(c1)Cc1cc(N)c(Br)cc1-2`, the activity change was inconclusive: -31.1%. In the case of `c1ccc(CCn2nnc3ccccc32)cc1`, the activity change is reported as inactive: 3.16%. For `CCc1nnc(NC(=O)CSc2nnc(-c3ccco3)n2CC)s1`, the activity change was inactive: 26.4%. In the case of `CCc1c(-c2ccc(Br)cc2)ncn1Cc1cccc(-c2ccccc2)c1`, the activity change is reported as active: -61.8%. In the case of `CC1CN(S(=O)(=O)c2ccc(C(=O)N(CCCN(C)C)c3nc4cc5c(cc4s3)OCCO5)cc2)CC(C)O1` (stereo unspecified), the activity change is reported as inconclusive: -45%. With `CCN(C[C@H]1N[C@@](C)(C(=O)OC)[C@H]2C(=O)N(Cc3ccccc3)C(=O)[C@@H]12)C(=O)Nc1ccc(Cl)cc1` the activity change was inactive: 109%. In the case of `CNc1nc(OC)nc(N(C#N)CN2C(=O)c3ccccc3S2(=O)=O)n1`, the activity change is reported as active: -82.2%. With `CCOC(=O)N1CCN(Cc2nc3cc(NC(=O)c4cccs4)ccc3n2CC)CC1` the activity change was inconclusive: -32%. With `OC(CNC1CCCc2ccccc21)COc1c(Cl)cccc1Cl` (stereo unspecified) the activity change was active: -101%. With `Cc1cc(C)n(-c2ccc(C(=O)N3CCN(S(=O)(=O)c4ccc(C(C)C)cc4)CC3)cc2)n1` the activity change was inconclusive: -34%. With `Cc1cc(C)c2c(N)c(C(=O)NC3CCCC3)sc2n1` the activity change was inconclusive: -43.2%. For `OCC1(Cc2ccccc2)CCN(Cc2cnc(-c3ccc(Cl)cc3)nc2)CC1`, the activity change was active: -94.1%. With `COc1ccc(/C=C/C(=O)c2ccc(OC)cc2OC)cc1` the activity change was active: -105%. In the case of `CN(Cc1ccc2c(c1)OCCO2)C(=O)CN1C(=O)NC2(CCCCC2)C1=O`, the activity change is reported as inactive: 0%. For `Brc1ccc(CN2CCN(c3ccccn3)CC2)s1`, the activity change was active: -82.7%. With `CCn1c(NCCO)nc2c(c1=O)C(C)(CC)Cc1ccccc1-2` (stereo unspecified) the activity change was inactive: 4%. With `Cc1cccc(OCC(=O)Nc2ccc3c(c2)nc2n3CCOC2)c1` the activity change was inconclusive: -34.1%. For `CC(C)(C)NC(=O)C1c2ccccc2OCC(=O)N1CC(F)(F)F` (stereo unspecified), the activity change was inactive: 22%. For `Cc1ccc(S(=O)(=O)NCC(=O)OCC(=O)NCc2ccco2)cc1`, the activity change was inactive: -13.4%. With `Cc1c(C=O)c2ccccc2n1CCOc1ccccc1` the activity change was inconclusive: -31.4%. For `CCOc1ccc(NC(=O)CSc2nc(=O)n(CCCN3CCOCC3)c3c2CCC3)cc1`, the activity change was inactive: -4.04%. For `O=c1c2c(O)cc(O)cc2oc2ccc(O)c(O[C@@H]3O[C@H](CO)[C@@H](O)[C@H](O)[C@H]3O[C@H]3O[C@H](CO)[C@@H](O)[C@H](O)[C@H]3O)c12`, the activity change was inactive: -5.77%. For `C/C(=N/NC(=O)CN(c1ccccc1)S(=O)(=O)c1ccccc1)c1ccccc1O`, the activity change was inactive: 49.4%. With `Cc1ccc(C(=O)Nc2ccccc2N2CCCCC2)cc1S(=O)(=O)N1CCOCC1` the activity change was inactive: -8.61%. For `C=CCN1C(=O)c2cccc3c(Br)ccc(c23)C1=O`, the activity change was inconclusive: -42.7%. With `O=C(CN1CCOCC1)N/N=C/C(Br)=C\c1ccccc1` the activity change was inconclusive: -44.8%. In the case of `O=C(Nc1ccc2c(c1)CCC2)c1cccc(F)c1`, the activity change is reported as inconclusive: -38.1%. With `COc1ccc(OC)c(C2=Nn3c(nnc3-c3cc(OC)c(OC)c(OC)c3)SC2)c1` the activity change was inactive: 0%. In the case of `CC(C)OC(=O)c1cn(-c2ccccc2)nc1-c1ccc2c(c1)OCCO2`, the activity change is reported as inconclusive: -39.2%. With `CCOc1ccc(-c2cc(CCCC(=O)NCc3ccc(C)cc3)no2)cc1` the activity change was inactive: 3.3%. In the case of `CN(C)CCCNc1oc(/C=C/c2cccs2)nc1S(=O)(=O)c1ccccc1`, the activity change is reported as inactive: -13%. In the case of `CN1CCC[C@@H]1CCO[C@](C)(c1ccccc1)c1ccc(Cl)cc1`, the activity change is reported as inconclusive: -46.8%. In the case of `CN(C(=O)COC(=O)c1cccs1)c1ccccc1`, the activity change is reported as inactive: 6.66%. In the case of `CCOC(=O)C1=C(C)OC(N)=C(C#N)C1c1ccc(C)o1` (stereo unspecified), the activity change is reported as inconclusive: -30.4%. For `COc1ccc(N(C)S(=O)(=O)c2ccc3c(c2)NC(=O)CC(=O)N3)c(OC)c1`, the activity change was inactive: 0%. In the case of `CCCCNC(=O)C1c2ccccc2OCC(=O)N1CC(F)(F)F` (stereo unspecified), the activity change is reported as inactive: 6.73%. For `COc1ccccc1Cn1c(=O)c2ccccc2n2c(SCc3csc(C)n3)nnc12`, the activity change was active: -54.6%. With `NC(=O)C(c1ccccc1)c1ccc(C(=O)c2ccccc2)cc1` (stereo unspecified) the activity change was inconclusive: -34.2%. With `CCN(Cc1ccccc1)C1CCN(Cc2ccccc2)CC1` the activity change was inconclusive: -35.9%. For `N#C/C(=C\c1cc([N+](=O)[O-])c(N2CCOCC2)cc1N1CCOCC1)c1nc2ccccc2[nH]1`, the activity change was inconclusive: -39.3%. In the case of `[O-][n+]1cccc2ncc3cscc3c21`, the activity change is reported as inactive: 9.78%. With `CCCN(C(=O)c1cn(-c2ccccc2)nc1-c1ccc(OC)cc1)C1CCS(=O)(=O)C1` (stereo unspecified) the activity change was inactive: -22.3%. In the case of `O=S1(=O)C=C(Sc2nc3ccccc3s2)c2ccccc21`, the activity change is reported as active: -66.3%. With `Cc1nc(SCC(=O)NC(C)(C)C)c2c(-c3cccs3)csc2n1` the activity change was inconclusive: -37.9%. With `CC1(C)NC(C)(C)/C(=C\c2cccs2)C(=O)C1=O` the activity change was inconclusive: -38.3%. With `CCCCCN(C(=O)COC(=O)c1ccc(C)cc1)c1c(N)n(CCCC)c(=O)[nH]c1=O` the activity change was inconclusive: -41.7%. In the case of `O=C(/C=C/c1ccc(Cl)cc1)NC1CC2CCC1C2` (stereo unspecified), the activity change is reported as active: -99%. For `Cc1c(Cl)cccc1NC(=O)CSc1nc(=O)n(CCCN2CCOCC2)c2c1CCCC2`, the activity change was inconclusive: -34.8%. In the case of `O=C1c2cccc3cccc(c23)C(=O)N1CC1CCN(CC(O)COc2ccc3ccccc3c2)CC1` (stereo unspecified), the activity change is reported as active: -95%.

Reference: PubChem BioAssay AID743279 (National Center for Advancing Translational Sciences (NCATS), 2014)
% is set by controls: 0 for no effect and ±100 for the full control effect.
